To fix the notation:
B1: glmS ribozyme (parent)
chain: AUAAAAGCGCCAGAACUACAGAAAUGUAGUUGACGAGGAGGAGGUUUAUCGAAUUUUCGGCGGAUGCCUCCAAA

Variants at the floor of the assay are shown more often than the library holds them.

What all share (conditions): with glucosamine-6-phosphate
Variants of B1 are the subject of data set [1]. Kind of data set: self-cleavage kobs at 40 uM GlcN6P; higher = faster cleavage; RNA array. In short, it runs like this: (§1)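 A hybridised Cy3 probe tracked barcoded ribozyme variants, transcribed in situ by E. coli RNA polymerase on sequenced MiSeq chips, at 37 °C. The variants received 40 μM to 10 mM glucosamine-6-phosphate in HEPES/KCl/Mg(OAc)2 buffer. kobs came from decay fits and kcat and KM from weighted Michaelis–Menten fits.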

The variants in data set [2] derive from B1. Kind of data set: self-cleavage kobs at 160 uM GlcN6P; higher = faster cleavage; RNA array. The gist of the method: as §1
Data set [3] covers variants of B1. The experiment in a line: self-cleavage kobs at 640 uM GlcN6P; higher = faster cleavage; RNA array. In short, it runs like this: as §1
Variants of B1 are the subject of data set [4]. The experiment in a line: self-cleavage kobs at 2500 uM GlcN6P; higher = faster cleavage; RNA array. In short, it runs like this:
as §1

Variants of B1 are the subject of data set [5]. The experiment in a line: self-cleavage kobs at 10000 uM GlcN6P; higher = faster cleavage; RNA array. In short, it runs like this: as §1

Take A6U A12G G43U: the “self-cleavage kobs at 40 uM GlcN6P” value with glucosamine-6-phosphate [1] is less than 1e-05 s⁻¹.
As for C8A A12C A15G C50U U56G G62U, the “self-cleavage kobs at 40 uM GlcN6P” value with glucosamine-6-phosphate [1] is less than 1e-05 s⁻¹.
On the same count and under the same terms, in the case of G7C U31G G32C it was less than 1e-05 s⁻¹.
On to G7A A42G, for which the “self-cleavage kobs at 40 uM GlcN6P” value with glucosamine-6-phosphate [1] was less than 1e-05 s⁻¹. For the same variant, the “self-cleavage kobs at 160 uM GlcN6P” value with glucosamine-6-phosphate [2] was less than 1e-05 s⁻¹.
Take A6U A52U C61A: the “self-cleavage kobs at 40 uM GlcN6P” value in the data set with glucosamine-6-phosphate [1] is less than 1e-05 s⁻¹.
Same read-out and setting: in the case of A6U G7C U56C it was less than 1e-05 s⁻¹; in that of A6U G44A C70U, less than 1e-05 s⁻¹.
Take A6U G32A: in the data set with glucosamine-6-phosphate [1], the “self-cleavage kobs at 40 uM GlcN6P” value was less than 1e-05 s⁻¹. The “self-cleavage kobs at 160 uM GlcN6P” value in the data set with glucosamine-6-phosphate [2] was less than 1e-05 s⁻¹.
As for A6U G7U U46G U56G U65A, the “self-cleavage kobs at 40 uM GlcN6P” value in the data set with glucosamine-6-phosphate [1] is less than 1e-05 s⁻¹.
On to C8A A15U A36G, for which, in the data set with glucosamine-6-phosphate [1], the “self-cleavage kobs at 40 uM GlcN6P” value is less than 1e-05 s⁻¹.
In the case of G7C U55A, in the data set with glucosamine-6-phosphate [1], the “self-cleavage kobs at 40 uM GlcN6P” value is less than 1e-05 s⁻¹. Further, the “self-cleavage kobs at 640 uM GlcN6P” value with glucosamine-6-phosphate [3] was less than 1e-05 s⁻¹. Also, the “self-cleavage kobs at 160 uM GlcN6P” value with glucosamine-6-phosphate [2] is less than 1e-05 s⁻¹.
Take A6U C8G A42U C61G: in the data set with glucosamine-6-phosphate [1], the “self-cleavage kobs at 40 uM GlcN6P” value was less than 1e-05 s⁻¹. Besides, the “self-cleavage kobs at 640 uM GlcN6P” value with glucosamine-6-phosphate [3] is less than 1e-05 s⁻¹. In addition, the “self-cleavage kobs at 160 uM GlcN6P” value with glucosamine-6-phosphate [2] was less than 1e-05 s⁻¹. Moreover, the “self-cleavage kobs at 2500 uM GlcN6P” value in the data set with glucosamine-6-phosphate [4] was less than 1e-05 s⁻¹. In addition, in the data set with glucosamine-6-phosphate [5], the “self-cleavage kobs at 10000 uM GlcN6P” value was less than 1e-05 s⁻¹.
Consider G7C A42C G44A, for which, in the data set with glucosamine-6-phosphate [1], the “self-cleavage kobs at 40 uM GlcN6P” value is less than 1e-05 s⁻¹. The “self-cleavage kobs at 640 uM GlcN6P” value in the data set with glucosamine-6-phosphate [3] was less than 1e-05 s⁻¹. Further, in the data set with glucosamine-6-phosphate [4], the “self-cleavage kobs at 2500 uM GlcN6P” value was less than 1e-05 s⁻¹. Further, the “self-cleavage kobs at 10000 uM GlcN6P” value in the data set with glucosamine-6-phosphate [5] is less than 1e-05 s⁻¹.
For C8A A39U, in the data set with glucosamine-6-phosphate [1], the “self-cleavage kobs at 40 uM GlcN6P” value is less than 1e-05 s⁻¹. Further, the “self-cleavage kobs at 640 uM GlcN6P” value with glucosamine-6-phosphate [3] was less than 1e-05 s⁻¹. The “self-cleavage kobs at 2500 uM GlcN6P” value in the data set with glucosamine-6-phosphate [4] was less than 1e-05 s⁻¹.
For G7U A42G, the “self-cleavage kobs at 40 uM GlcN6P” value with glucosamine-6-phosphate [1] is less than 1e-05 s⁻¹. In addition, in the data set with glucosamine-6-phosphate [3], the “self-cleavage kobs at 640 uM GlcN6P” value was less than 1e-05 s⁻¹. The “self-cleavage kobs at 160 uM GlcN6P” value with glucosamine-6-phosphate [2] is less than 1e-05 s⁻¹. In addition, the “self-cleavage kobs at 2500 uM GlcN6P” value with glucosamine-6-phosphate [4] is less than 1e-05 s⁻¹. Moreover, the “self-cleavage kobs at 10000 uM GlcN6P” value in the data set with glucosamine-6-phosphate [5] was less than 1e-05 s⁻¹.
As for G7U A42U, the “self-cleavage kobs at 40 uM GlcN6P” value with glucosamine-6-phosphate [1] is less than 1e-05 s⁻¹. For the same variant, in the data set with glucosamine-6-phosphate [3], the “self-cleavage kobs at 640 uM GlcN6P” value is less than 1e-05 s⁻¹. In addition, in the data set with glucosamine-6-phosphate [4], the “self-cleavage kobs at 2500 uM GlcN6P” value was less than 1e-05 s⁻¹. Also, in the data set with glucosamine-6-phosphate [5], the “self-cleavage kobs at 10000 uM GlcN6P” value was less than 1e-05 s⁻¹.
Take G7C C61G: the “self-cleavage kobs at 40 uM GlcN6P” value with glucosamine-6-phosphate [1] was less than 1e-05 s⁻¹. Besides, in the data set with glucosamine-6-phosphate [2], the “self-cleavage kobs at 160 uM GlcN6P” value was less than 1e-05 s⁻¹. In addition, the “self-cleavage kobs at 2500 uM GlcN6P” value with glucosamine-6-phosphate [4] is less than 1e-05 s⁻¹.
Take A6G U65G: in the data set with glucosamine-6-phosphate [1], the “self-cleavage kobs at 40 uM GlcN6P” value is less than 1e-05 s⁻¹.
On the same count and under the same terms, in the case of A6U A48G G51C G59C it was less than 1e-05 s⁻¹.
For the variant G7U U30C G60C C71U, the “self-cleavage kobs at 40 uM GlcN6P” value in the data set with glucosamine-6-phosphate [1] is less than 1e-05 s⁻¹. The “self-cleavage kobs at 640 uM GlcN6P” value in the data set with glucosamine-6-phosphate [3] was less than 1e-05 s⁻¹. In the data set with glucosamine-6-phosphate [4], the “self-cleavage kobs at 2500 uM GlcN6P” value is less than 1e-05 s⁻¹.
As to G7C G9U A33G U47G A52C G63U, the “self-cleavage kobs at 40 uM GlcN6P” value in the data set with glucosamine-6-phosphate [1] was less than 1e-05 s⁻¹.
A6U C34A: the “self-cleavage kobs at 40 uM GlcN6P” value in the data set with glucosamine-6-phosphate [1] is less than 1e-05 s⁻¹. Also, the “self-cleavage kobs at 640 uM GlcN6P” value with glucosamine-6-phosphate [3] is less than 1e-05 s⁻¹. Further, the “self-cleavage kobs at 160 uM GlcN6P” value in the data set with glucosamine-6-phosphate [2] was less than 1e-05 s⁻¹. Further, the “self-cleavage kobs at 2500 uM GlcN6P” value in the data set with glucosamine-6-phosphate [4] is less than 1e-05 s⁻¹. Besides, in the data set with glucosamine-6-phosphate [5], the “self-cleavage kobs at 10000 uM GlcN6P” value was less than 1e-05 s⁻¹.
Consider G7U G29C G43U G51A, for which the “self-cleavage kobs at 40 uM GlcN6P” value with glucosamine-6-phosphate [1] is less than 1e-05 s⁻¹. Moreover, the “self-cleavage kobs at 10000 uM GlcN6P” value with glucosamine-6-phosphate [5] is less than 1e-05 s⁻¹.
As to G7C G38A, the “self-cleavage kobs at 40 uM GlcN6P” value in the data set with glucosamine-6-phosphate [1] was less than 1e-05 s⁻¹. Moreover, the “self-cleavage kobs at 160 uM GlcN6P” value in the data set with glucosamine-6-phosphate [2] is less than 1e-05 s⁻¹.
Consider G7U G59C, for which, in the data set with glucosamine-6-phosphate [1], the “self-cleavage kobs at 40 uM GlcN6P” value is less than 1e-05 s⁻¹. For the same variant, in the data set with glucosamine-6-phosphate [3], the “self-cleavage kobs at 640 uM GlcN6P” value was less than 1e-05 s⁻¹. For the same variant, in the data set with glucosamine-6-phosphate [2], the “self-cleavage kobs at 160 uM GlcN6P” value was less than 1e-05 s⁻¹. Further, in the data set with glucosamine-6-phosphate [4], the “self-cleavage kobs at 2500 uM GlcN6P” value was less than 1e-05 s⁻¹. Further, the “self-cleavage kobs at 10000 uM GlcN6P” value with glucosamine-6-phosphate [5] is less than 1e-05 s⁻¹.
On to A6U U30G U65C, for which the “self-cleavage kobs at 40 uM GlcN6P” value with glucosamine-6-phosphate [1] is less than 1e-05 s⁻¹. The “self-cleavage kobs at 640 uM GlcN6P” value in the data set with glucosamine-6-phosphate [3] is less than 1e-05 s⁻¹. Also, the “self-cleavage kobs at 10000 uM GlcN6P” value with glucosamine-6-phosphate [5] is less than 1e-05 s⁻¹.
A6U G35C G51C U65G: the “self-cleavage kobs at 40 uM GlcN6P” value with glucosamine-6-phosphate [1] is less than 1e-05 s⁻¹.
